Results on nine compounds are retold here after the antibiotic and cytotoxicity screens of Wong et al. (2023).

Each structure is given as a SMILES string. This is one part of the list.

One assay has as its system HSkMC. Put plainly: cytotoxicity call (relative viability < 0.9). Particulars: 10 µM.
The next assay deals with HepG2. Put plainly: cytotoxicity call (relative viability < 0.9). Particulars: 10 µM.
The next assay relates to S. aureus RN4220. The assay is described as follows: growth inhibition call (relative growth <= 0.2). The settings on record: 50 µM.

With `CCCN(C)C[C@H]1OCCCC[C@@H](C)Oc2ccc(NC(=O)Nc3ccc(C(F)(F)F)cc3)cc2C(=O)N([C@H](C)CO)C[C@H]1C`, the cytotoxicity call with HSkMC and in the assay on HepG2 was “inactive” in each case. The growth inhibition call with S. aureus RN4220 is “inactive”.
Regarding `C[C@@H]1CN([C@H](C)CO)C(=O)Cc2cc(NC(=O)CCN3CCOCC3)ccc2O[C@@H]1CN(C)S(=O)(=O)c1ccccc1`, the cytotoxicity call in the assay with HSkMC and with HepG2 was “inactive” in each case. Moreover, the growth inhibition call in the assay on S. aureus RN4220 is “inactive”.
On to `C[C@@H]1CN([C@H](C)CO)C(=O)Cc2cc(NC(=O)Nc3ccc(C(F)(F)F)cc3)ccc2O[C@H]1CN(C)C(=O)Nc1cccc2ccccc12`, for which the cytotoxicity call in the assay with HSkMC and with HepG2 was “inactive” throughout. For the same compound, in the assay with S. aureus RN4220, the growth inhibition call is “inactive”.
For the compound `COCC(=O)NC1CCN(C2CCNCC2)CC1`, the cytotoxicity call in the assay on HSkMC and in the assay on HepG2 was “inactive” in each case. Besides, the growth inhibition call in the assay with S. aureus RN4220 was “inactive”.
Consider `Cc1ccc(S(=O)(=O)N(C)C[C@@H]2Oc3c(NS(=O)(=O)c4cccs4)cccc3C(=O)N([C@H](C)CO)C[C@@H]2C)cc1`, for which the cytotoxicity call in the assay on HSkMC is “inactive”. Also, the cytotoxicity call in the assay with HepG2 is “active”. In addition, in the assay on S. aureus RN4220, the growth inhibition call is “inactive”.
Turning to `C[C@H]1CN([C@@H](C)CO)C(=O)Cc2cc(NC(=O)C3CCCCC3)ccc2O[C@@H]1CN(C)C(=O)Nc1ccc(C(F)(F)F)cc1`, the cytotoxicity call in the assay on HSkMC and in the assay with HepG2 was “inactive” in each case. Further, in the assay on S. aureus RN4220, the growth inhibition call is “inactive”.
For `C[C@@H]1CCCCO[C@@H](CN(C)CC2CCCCC2)[C@@H](C)CN([C@@H](C)CO)C(=O)c2cc(NC(=O)c3ccccc3)ccc2O1`, the cytotoxicity call in the assay on HSkMC (human skeletal muscle cells) and in the assay on HepG2 was “inactive” in each case. Moreover, in the assay on S. aureus RN4220, the growth inhibition call was “inactive”.
In the case of `C[C@@H]1CCCCO[C@@H](CN(C)C(=O)Cc2ccccc2)[C@H](C)CN([C@H](C)CO)C(=O)c2cc(NS(=O)(=O)c3ccc(Cl)cc3)ccc2O1`, the cytotoxicity call with HSkMC and in the assay on HepG2 was “inactive” throughout. Also, the growth inhibition call in the assay on S. aureus RN4220 is “inactive”.
As for `Cc1noc(C)c1S(=O)(=O)Nc1ccc2c(c1)CC(=O)N([C@H](C)CO)C[C@H](C)[C@H](CN(C)Cc1ccc(C(=O)O)cc1)O2`, the cytotoxicity call in the assay with HSkMC and in the assay on HepG2 was “inactive” throughout. The growth inhibition call in the assay on S. aureus RN4220 was “inactive”.
